# From PubChem BioAssay AID1865 (National Center for Advancing Translational Sciences (NCATS), 2009)
# The whole screen tested about 280,000 compounds, of which about 540 (0.19%) were called active. Inconclusive results, whose numbers are uncertain, are shown with a selection of clear calls. Calls follow the shape of the dose curve; as a rule, active = well fitted activation curve with a large enough effect; inconclusive = small, poorly fitted or top-dose-only effect; inactive = flat fitted curve, though single readings scatter. Potencies beside an inconclusive call are fits to weak or partial responses and may not hold up.
# Test: Quantitative High-Throughput Screen for Regulators of Epigenetic Control; also: nearly all actives have a fitted effect of over 60% in size; as to GFP activation: % of control where 0% means no effect
# Settings: murine LDR cells, GFP reporter derepression, 30 h; GFP activation: at 53.9 µM (top of the series)
# Method in brief: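 Readout is the number of GFP-expressing murine LDR cells, counted by cytometry following washing. Cells were treated with compound for 30 h at 37 C; the stably integrated CMV-GFP locus is normally silent.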
# Potency is read from the fitted curve at half-maximal effect; tags tell the direction and shape of the fitted curve.
Structure (SMILES),GFP activation,Potency
Cc1c(Cl)cccc1NC(=O)N1CCCN(c2nc(-c3ccccc3)ns2)CC1,inactive: 0%,–
CCCc1[nH]nc2c1C(c1ccc(Br)s1)C(C#N)=C(N)O2 (stereo not drawn),–,"inconclusive: 28.2 µM [activator, single point]"
Cc1ccc(-c2ccc(/C=N/NC(N)=S)o2)cc1,–,"inconclusive: 31.6 µM [activator, single point]"
Cc1ccc(OCc2nc(-c3ccccn3)n[nH]2)cc1,–,"inconclusive: 28.2 µM [activator, single point]"
COc1ccc(NC(=O)C2CCCN(S(=O)(=O)c3cccc4nonc34)C2)cc1Cl (stereo not drawn),–,"inconclusive: 22.4 µM [activator, single point]"
Cc1cc(C)c(C)c(S(=O)(=O)NCCC(=O)O)c1C,inactive: -3.06%,–
Cc1cc(O)c(C=O)c2c1C(=O)Oc1c(CO)c(O)c3c(c1O2)C(O)OC3=O (stereo not drawn),inactive: -3.23%,–
O=C(c1ccc(Cl)cc1)c1cnc(-c2ccccc2)s1,inactive: 0%,–
Cc1cccc(NC(=O)c2nc[nH]c2C(=O)N[C@@H](CC(C)C)C(=O)OCc2ccccc2)c1,–,"inconclusive: 31.6 µM [activator, single point]"
O=C1C2C3C=CC(C2C(=O)N1c1cccc(O)c1)C1C2C(=O)N(c4cccc(O)c4)C(=O)C2C31 (stereo not drawn),–,"inconclusive: 35.5 µM [activator, single point]"
O=c1c2c3nc4ccccc4nc3n(Cc3ccccc3)c2ncn1Cc1ccco1,–,"inconclusive: 22.4 µM [activator, single point]"
O=C(Nc1ccccc1)N1CCCC(c2nc(-c3cccs3)no2)C1 (stereo not drawn),–,"inconclusive: 3.16 µM [activator, single point]"
O=C(Nc1nc(-c2ccc(S(=O)(=O)N3CCCC3)cc2)cs1)C1COc2ccccc2O1 (stereo not drawn),inactive: -0.848%,–
CSc1nc2ccc(S(=O)(=O)Nc3c(C)n(C)n(-c4ccccc4)c3=O)cc2s1,inactive: 0%,–
COCCN1C(=O)C(=O)/C(=C(/O)c2ccc(C)cc2)C1c1ccccn1 (stereo not drawn),inactive: -4.75%,–
O=C1c2cccc3c([N+](=O)[O-])ccc(c23)C(=O)N1Cc1cccnc1,–,"inconclusive: 17.8 µM [activator, single point]"
Cc1ccc(CNc2ccc3c(c2)OCO3)c(C)c1,–,"inconclusive: 35.5 µM [activator, single point]"
COCCCNC(=O)c1ccc2c(c1)N=C(C)c1c(C)ccc(C)c1S2,–,"inconclusive: 14.1 µM [activator, single point]"
Cc1cccc(-c2nc(SCC(=O)Nc3cc(C)on3)c3c(=O)n(C)c(=O)n(C)c3n2)c1,–,"inconclusive: 35.5 µM [activator, single point]"
COc1ccc(-n2c(=O)c3sc4ccccc4c3n(CC(=O)Nc3cccc(C)c3)c2=O)cc1,–,"inconclusive: 31.6 µM [activator, single point]"
Cc1ccc(-c2ccc(C(=O)Nc3cccc(F)c3)o2)c2ccccc12,–,"inconclusive: 35.5 µM [activator, single point]"
Cc1cc(C(=O)N/N=C/c2ccc([N+](=O)[O-])s2)n[nH]1,inactive: -1.14%,–
CCOC(=O)Cn1c(=O)n(CC2CCCO2)c2nc(-c3ccc(OC)cc3OC)nc(C(N)=O)c21 (stereo not drawn),inactive: -1.69%,–

Structure (SMILES),GFP activation,Potency
COCc1cc(C)nc(SCc2nc3ccccc3c(=O)[nH]2)c1C#N,–,"inconclusive: 31.6 µM [activator, single point]"
Cc1ccnc(N/C=C(\C#N)c2nc(-c3cccc(Br)c3)cs2)c1,–,active: 15.8 µM
Cc1ccc(C)c(N2CCN(C(=O)c3cnc4c(-c5ccccc5)c(C)nn4c3C)CC2)c1,–,"inconclusive: 6.31 µM [activator, single point]"
O=C(N/N=C/c1ccc([N+](=O)[O-])o1)c1cc2c(ccc3ccccc32)o1,–,"inconclusive: 8.91 µM [activator, partial curve]"
Cc1cc(NC(=O)CSc2nc(-c3ccccc3F)nc3c2c(=O)n(C)c(=O)n3C)no1,–,"inconclusive: 35.5 µM [activator, single point]"
O=[N+]([O-])c1ccc(/C=N/Nc2nc(N3CCCCCC3)nc(N3CCCCCC3)n2)o1,–,"inconclusive: 31.6 µM [activator, single point]"
COc1cc(C(=O)Nc2nnc(S(=O)(=O)N(C)c3ccccc3)s2)cc(OC)c1OC,–,active: 10 µM
Fc1ccc(-c2nn(-c3ccccc3)cc2CNCc2ccccc2)cc1,–,"inconclusive: 28.2 µM [activator, single point]"
Cc1ccc2cc(C#N)c(NCc3ccccc3)nc2c1,inactive: 0%,–
COc1ccccc1CNC(=O)CCn1c(=O)c2ccccc2n(CC(=O)Nc2ccc(C)cc2)c1=O,–,"inconclusive: 17.8 µM [activator, single point]"
COc1ccc(C(=O)NCc2nnc(SCC(=O)Nc3cc(C)on3)o2)cc1OC,–,"inconclusive: 35.5 µM [activator, single point]"
CCOC(=O)c1ccc(NC(=O)CSc2nnc(CCc3ccc(C)o3)n2-c2ccccc2)cc1,inactive: 0.925%,–
COc1ccc(CSc2cccc3cccnc23)cc1[N+](=O)[O-],–,"inconclusive: 31.6 µM [activator, single point]"
Cc1nn(C)c(C)c1/C=N/NC(=O)CCn1nc(C)c([N+](=O)[O-])c1C,inactive: -2.56%,–
CCc1ccccc1NC(=O)CN(c1ccccc1OC)S(=O)(=O)c1ccc(C)cc1,inactive: -0.641%,–
COc1ccc(C(=O)/C=C/Sc2nc3ccccc3o2)cc1,–,"inconclusive: 3.16 µM [activator, partial curve]"
CCN1/C(=C\c2ccc3ccccc3[n+]2CC)Sc2cc(C)ccc21,–,active: 0.562 µM
Cc1ccc2c(c1)-c1c(ssc1=S)C(C)(C)N2C(=O)CSC1=NCCS1,inactive: -0.917%,–
O=C(Nc1ccc(-c2nc3cc(Cl)ccc3o2)cc1)c1cc(Br)ccc1Cl,–,"inconclusive: 25.1 µM [activator, single point]"
Cc1ccc(-c2nc3c4ccccc4ccn3c2CN2CCCCC2)cc1,–,"inconclusive: 0.708 µM [activator, full curve, poor fit]"
COc1ccc(Nc2nc3c(S(=O)(=O)c4ccccc4)nnn3c3ccc(Cl)cc23)cc1,–,"inconclusive: 2.82 µM [activator, full curve]"
O=C(Cc1ccc(F)cc1)c1ccc(O)cc1O,inactive: -0.285%,–
Cc1ccc(/C=C/C(=O)c2ccccc(=O)c2O)cc1C,–,"inconclusive: 35.5 µM [activator, single point]"

Structure (SMILES),GFP activation,Potency
Oc1ccc(Br)cc1-c1cc(-c2ccccc2)n[nH]1,inactive: 4.17%,–
COC(=O)[C@H]1[C@H]2C[C@@H]3c4[nH]c5cc(OC)ccc5c4CCN3C[C@H]2C[C@@H](OC(=O)c2ccc(N)cc2)[C@@H]1OC,–,"inconclusive: 20 µM [activator, single point]"
CCCCC/C=C/C=C1/C(=O)C=C[C@@H]1C/C=C\CCCC(=O)O,–,"inconclusive: 31.6 µM [activator, single point]"
CCS(=O)(=O)c1ncc(Cl)c(C(=O)Nc2ccc(S(=O)(=O)N(C)c3ccccc3)cc2)n1,inactive: 1.85%,–
COc1cc(C2c3[nH]c4ccccc4c3CC3C(=O)N4C(Cc5c([nH]c6ccccc56)C4c4cc(OC)c(OC)c(OC)c4)C(=O)N32)cc(OC)c1OC (stereo not drawn),inactive: 1.14% [at 10.1 µM],–
CCc1ccc(NC(=S)NC2CCN(Cc3ccccc3)CC2)cc1,–,"inconclusive: 35.5 µM [activator, single point]"
Cc1cnc(NC(=O)Nc2ccc(Cl)cc2)s1,inactive: -4.18%,–
COc1ccc(-c2nc(/C=C3\C(C)=Nc4ccccc43)c(O)o2)cc1,inactive: 2.74%,–
O=C1C2C(C(=O)N1/N=C/c1ccc([N+](=O)[O-])o1)C1C=CC2C12CC2 (stereo not drawn),–,"inconclusive: 35.5 µM [activator, single point]"
CSC(=S)N/N=C(\C)c1ccccc1,–,"inconclusive: 5.62 µM [activator, single point]"
Cc1ccc(-c2ccccc2)n1-c1ccc(C(=O)O)cc1,–,"inconclusive: 22.4 µM [activator, single point]"
CC1(C)CC(=O)C/C(=N/NC(=O)c2ccc(-c3ccccc3)cc2)C1,–,"inconclusive: 35.5 µM [activator, single point]"
CCOC(=O)c1csc(NC(=O)CSc2nnnn2-c2cccc(OC)c2)n1,–,"inconclusive: 25.1 µM [activator, single point]"
COc1ccc(Cn2cc3c(-c4ccc(F)cc4)nnc-3c3cc(OC)c(OC)cc32)cc1,–,"inconclusive: 12.6 µM [activator, single point]"
COc1cc(/C=C/C(=O)O)cc(S(=O)(=O)NCc2ccc3c(c2)OCO3)c1OC,–,"inconclusive: 5.01 µM [activator, single point]"
S=C(N/N=C/c1cccs1)NC1CC2CCC1C2 (stereo not drawn),inactive: 1.46%,–
CCOc1ccc(/C=C/C(=O)Nc2ccc(OC)cc2[N+](=O)[O-])cc1,–,"inconclusive: 31.6 µM [activator, single point]"
Cc1cccc(NS(=O)(=O)c2ccc3c(c2)CC(C)N3C(=O)C2CCC2)c1C (stereo not drawn),inactive: 1.06%,–
Cc1ccc(Cn2c(C)c3cnn(CC(=O)NCc4ccccc4)c(=O)c3c2C)cc1,–,"inconclusive: 35.5 µM [activator, single point]"
Cc1cc(OC(C)C(=O)Nc2cccc(-c3nc4ccccc4o3)c2)cc(C)c1Cl (stereo not drawn),–,"inconclusive: 35.5 µM [activator, single point]"
Cc1cc(NC(=O)CSc2nc3ccccc3c(=O)n2CCCC(=O)NCc2ccccc2)n[nH]1,inactive: 0%,–
Cc1[nH]nc2c1C(C1CC=CCC1)C(C#N)=C(N)O2 (stereo not drawn),–,"inconclusive: 25.1 µM [activator, single point]"
